Assay results taken from PubChem BioAssay AID504706 (National Center for Advancing Translational Sciences (NCATS), 2011).
The whole screen tested about 320,000 compounds, of which about 200 (0.062%) were called active. The shares of active, inactive and inconclusive entries below differ from those in the screen. Calls follow the shape of the dose curve; as a rule, active = well fitted activation curve with a large enough effect; inconclusive = small, poorly fitted or top-dose-only effect; inactive = no such curve, though single readings can be large or run the other way. No potency is given beside an inconclusive call; the fits are too rough.

Test: qHTS assay for re-activators of p53 using a Luc reporter; also: nearly all actives have a fitted effect of over 45% in size
Details: H1299 p53-A138V BP100-luciferase reporter, luminescence, 24 h; series mostly up to 92.2 µM
In short: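 H1299 (p53-null), stable ts p53-A138V + BP100-Luc; 1000 cells/well, Opti-MEM/10% FBS; cpd 4 pt, 1:5; 24 h, 37 deg C, 5% CO2; detection reagent 10 min RT; luminescence.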
Potency is read from the fitted curve at half-maximal effect; tags tell the direction and shape of the fitted curve.

Row | Compound | Potency
1 | O=C(N/N=C/c1c(Cl)nc2ccccn2c1=O)c1cccnc1 | inconclusive [activator, single point]
2 | O=C(CSc1nncn1-c1ccccc1)Nc1ccccc1 | inconclusive [activator, partial curve, poor fit]
3 | COc1ccc(Cc2nc3ccc(C(=O)N4C[C@@H](C)O[C@@H](C)C4)cc3o2)cc1OC | inconclusive [activator, partial curve, poor fit]
4 | CNC(=S)NNC(=O)Cc1ccc(OC)cc1 | inactive
5 | COc1ccc(NC(=O)CC2C(=O)N(c3ccc(Cl)cc3)C(=S)N2CCc2ccccn2)cc1 (stereo not drawn) | inconclusive [activator, partial curve, poor fit]
6 | C1=C(c2cc3ccccc3cn2)CCCC1 | inconclusive [activator, full curve, poor fit]
7 | Cc1ccc(C(=O)C2=C(O)C(=O)N(c3ncccn3)C2c2cccc(Cl)c2)o1 (stereo not drawn) | inconclusive [activator, single point]
8 | Cc1cccc(/C=N/Nc2ccc3ccccc3n2)c1 | inactive
9 | O=C(c1ccco1)n1nc(-c2ccccc2)nc1NCc1ccco1 | inconclusive [activator, single point]
10 | N#Cc1ccccc1NC(=O)c1ccc2c(c1)OCCO2 | inconclusive [activator, full curve, poor fit]
11 | O=C(NC1CCCCCC1)c1ccc(N2CCCC2=O)cc1 | inconclusive [activator, full curve, poor fit]
12 | O=C(Nc1ccc2nc(-c3ccc4nc[nH]c4c3)[nH]c2c1)c1cccs1 | inactive
13 | CN(C)c1ccc(/C=C/c2ccc3ccccc3[n+]2C)cc1 | inconclusive [activator, partial curve, poor fit]
14 | Cn1c(C(=O)O)c(CC(=O)Nc2ccc3c(c2)OCCO3)c2ccccc21 | inconclusive [activator, partial curve, poor fit]
15 | CC(=O)NC1=C(Nc2ccc(N(C)C)cc2)C(=O)c2ccccc2C1=O | inconclusive [activator, full curve, poor fit]
16 | C1=C2C[N+]3(CCCC3)CC2Cc2ccc3ccccc3c21 (stereo not drawn) | inactive
17 | O=C(Nc1ccc(NC(=O)c2ccco2)nc1)c1cccc(F)c1 | inconclusive [activator, full curve, poor fit]
18 | N#C/C(=C\c1cn(-c2ccccc2)nc1-c1cc2ccccc2o1)c1nc2ccccc2[nH]1 | inconclusive [activator, full curve, poor fit]
19 | Nc1ccccc1C(=O)/C=C/c1ccc2c(c1)OCO2 | inconclusive [activator, partial curve, poor fit]
20 | O=C(Nc1ccc(F)c(F)c1)c1ccc2c(c1)OCO2 | inconclusive [activator, partial curve, poor fit]
21 | CCOC(=O)c1c(C)[nH]c(C(=O)OCCOc2ccccc2C)c1C | inconclusive [activator, full curve, poor fit]
22 | COc1ccc(/C=C/C(=O)c2ccc(NC(=O)c3cccs3)cc2)cc1OC | inconclusive [activator, partial curve, poor fit]
23 | O=C(COC(=O)CNC(=O)c1ccc([N+](=O)[O-])o1)Nc1ncc(Cl)cc1Cl | inactive

Row | Compound | Potency
24 | O=C(NC(=S)NC1CC1)c1cccnc1 | inactive
25 | Cc1[nH]n(-c2ccccc2)c(=O)c1C(=O)c1ccc(Cl)cc1 | inconclusive [activator, single point]
26 | CCS(=O)(=O)N1CCN(C(=O)c2ccco2)CC1 | inactive
27 | CC1(C)NC(=O)N(CCCCOc2ccc(Br)cc2Cl)C1=O | inactive
28 | COCCN(CCOC)C(=O)c1cc2c(=O)n3ccccc3nc2s1 | inconclusive [activator, partial curve, poor fit]
29 | Cc1cc2c3c(c1)C1(C(=O)N3C(C)(C)CC2C)C(C#N)=C(N)Oc2cc(O)ccc21 (stereo not drawn) | inconclusive [activator, partial curve, poor fit]
30 | O=C(N/N=C/c1cccc(F)c1)NC1CCCCC1 | inconclusive [activator, partial curve, poor fit]
31 | CCc1cccc(C)c1NC(=O)C1CCCN1C(=O)NCc1ccccc1 (stereo not drawn) | inactive
32 | O=C(Cc1ccccc1)NCC(=O)OCC(=O)c1ccc(Cl)cc1 | inconclusive [activator, single point]
33 | Cc1nc(C)c(-c2csc(Nc3ccc(F)cc3)n2)s1 | inconclusive [activator, partial curve, poor fit]
34 | CCCNS(=O)(=O)c1ccc(CCC(=O)Nc2cc(Cl)ccc2Oc2ccccc2)cc1 | inactive
35 | O=[N+]([O-])c1cccc(S(=O)(=O)Nc2cccc(-c3ccc(N4CCOCC4)nn3)c2)c1 | inactive
36 | N#Cc1ccsc1NC(=O)COC(=O)c1cc2ccccc2cc1O | inconclusive [activator, partial curve, poor fit]
37 | O=C(NCc1ccccc1)C1CCCC1 | inconclusive [activator, partial curve, poor fit]
38 | COc1ccc(C(=O)N[C@H](C(=O)Nc2nc3c(s2)CCCC3)C(C)C)cc1 | inconclusive [activator, partial curve, poor fit]
39 | CC(C)c1ccc(C(=O)N(c2ccccn2)C(C)c2ccco2)cc1 (stereo not drawn) | inconclusive [activator, single point]
40 | O=C(NCc1ccccn1)Nc1ccc(Cl)cc1Cl | inconclusive [activator, partial curve, poor fit]
41 | Cc1cc2cc(C)c(NCCNC(=O)c3cccs3)nc2cc1C | inactive
42 | CCOc1ccc(S(=O)(=O)/N=C(/Nc2ccc(OC)cc2)c2ccccc2)cc1 | inactive
43 | Nc1ccc(-c2nc3ccccc3s2)cn1 | inconclusive [activator, full curve, poor fit]
44 | O=C(N/N=C/C(Br)=C/c1ccccc1)c1cccnc1 | inconclusive [activator, single point]
45 | CCOc1ccc(-c2csc(NC(=O)c3ccco3)n2)cc1 | inconclusive [activator, partial curve, poor fit]
46 | O=C(CSc1nnc(-c2ccc(Cl)cc2)n1CC1CCCO1)NC1CCS(=O)(=O)C1 (stereo not drawn) | inactive

Row | Compound | Potency
47 | Cn1ccnc1SCC(=O)c1cccc(Br)c1 | inconclusive [activator, partial curve, poor fit]
48 | CC(=O)Nc1ccc2c(c1)C(=O)N(C1CCCCC1)C2=O | inactive
49 | Cc1ccc(Nc2nnc(SCC(=O)N(C)C3CCS(=O)(=O)C3)s2)cc1 (stereo not drawn) | inactive
50 | O=C(NC1C(=O)NNC1c1ccccc1)c1ccccc1 (stereo not drawn) | inconclusive [activator, partial curve, poor fit]
51 | Cc1ccc2nc(NC(=O)c3ccc(-c4nc5ccccc5s4)s3)sc2c1 | inconclusive [activator, partial curve, poor fit]
52 | Cc1ccc(C)c(N2CCN(C(=O)c3ccc(CS(=O)Cc4cccc(Cl)c4)o3)CC2)c1 (stereo not drawn) | inactive
53 | COc1ccc(C(=O)COC(=O)c2cccnc2Cl)c(OC)c1 | inconclusive [activator, partial curve, poor fit]
54 | CC1(C)Cc2c(cnn2-c2ccc(F)cc2)C(NC(=O)c2ccc(=O)oc2)C1 (stereo not drawn) | inconclusive [activator, partial curve, poor fit]
55 | O=C(NC1CC1)C1CCN(c2nc3ccccc3s2)CC1 | inconclusive [activator, full curve, poor fit]
56 | CNC(=O)COc1ncnc2scc(-c3ccc(F)cc3)c12 | inactive
57 | COc1ccc(-c2cc3c(=O)n(CC(=O)NCCCN4CCC(Cc5ccccc5)CC4)ncn3n2)cc1 | inconclusive [activator, partial curve, poor fit]
58 | COc1c(Cl)cccc1-c1cn2ccccc2n1 | inconclusive [activator, partial curve, poor fit]
59 | O=C(O)c1cccc(NC(=O)c2ccc(Cl)c(S(=O)(=O)N3CCCCCC3)c2)c1 | inactive
60 | Cc1cccc(-n2c(C)cc(C=C3C(=O)c4ccccc4C3=O)c2C)c1 | inconclusive [activator, partial curve, poor fit]
61 | Cc1ncc(N=Nc2ccc(F)cc2)c(-c2ccc(Cl)cc2)n1 | inactive
62 | CCN(CC(=O)NC(C)C)C(=O)C(CCSC)NC(=O)c1ccccc1OC (stereo not drawn) | inconclusive [activator, single point]
63 | CC1CC(C)CN(C(=O)CN2C(=O)NC3(CCCCCC3)C2=O)C1 (stereo not drawn) | inactive
64 | COc1cc(C=O)ccc1OCCSc1ccc(C)cc1 | inconclusive [activator, single point]
65 | Cc1noc(C)c1C(=O)Nc1nc(-c2cccs2)cs1 | inconclusive [activator, full curve, poor fit]
66 | CCOC(=O)c1cc2cc(OC)ccc2[nH]1 | inconclusive [activator, partial curve, poor fit]
67 | CC(/C=N/NC(=O)c1cccs1)=C\c1ccccc1 | inconclusive [activator, partial curve, poor fit]
68 | COc1ccc(C(CNC(=O)c2cccc(S(=O)(=O)N3CCCC(C)C3)c2)N(C)C)cc1 (stereo not drawn) | inconclusive [activator, single point]
